# Measured values taken from the supplement of paper PMC8728848.
# The other results are listed elsewhere or left out.
# B1: VLRB.aGPA.23-GCN4-biotin (Petromyzon marinus) (protein)
# chain: ACPSQCSCSGTEVNCAGKSLASVPAGIPTTTRVLYLNSNQITKLEPGVFDRLANLRELHLWGNQLVSLPPGVFDNLANLEKLWLNSNQLTSLPAGLFDRLVNLEHLGLCCMKLTELPSGAFDKLTRLKQLGLDQNQLKSIPDGAFARLPSLTHVWLHTNPWDCQCTDILYLSGWVAQHSSIVGEGWPWRHSPDSAKCSGTNTPVRAVTEASTSPSKCP
# What was measured:
# Test in all cases: glycan array binding signal (z-score within array); higher = stronger binding
# Conditions in all cases: glycan notation: IUPAC condensed, linker removed
# Fuc(a1-2)Gal = biological target: Fuc(a1-2)Gal
# How it was run: (§1)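 The binding signal is a Z-score computed within each array and averaged over linkers. Arrays of the same protein sequence at different concentrations or buffers were also averaged together. Data originate from 3228 arrays in the Consortium for Functional Glycomics database, kept only where the protein sequence was available.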
# Fuc(a1-2)Gal(b1-3)GalNAc = biological target: Fuc(a1-2)Gal(b1-3)GalNAc
# How it was run: as §1
# [1] = biological target: Fuc(a1-2)Gal(b1-3)GalNAc(a1-3)[Fuc(a1-2)]Gal(b1-4)Glc
# How it was run: as §1
# [2] = biological target: Fuc(a1-2)Gal(b1-3)GalNAc(a1-3)[Fuc(a1-2)]Gal(b1-4)GlcNAc
# How it was run: as §1
# [3] = biological target: Fuc(a1-2)Gal(b1-3)GalNAc(b1-3)Gal
# How it was run: as §1
# [4] = biological target: Fuc(a1-2)Gal(b1-3)GalNAc(b1-3)Gal(a1-4)Gal(b1-4)Glc
# How it was run: as §1
# [5] = biological target: Fuc(a1-2)Gal(b1-3)GalNAc(b1-4)[Neu5Ac(a2-3)]Gal(b1-4)Glc
# How it was run: as §1
# Fuc(a1-2)Gal(b1-3)GlcNAc = biological target: Fuc(a1-2)Gal(b1-3)GlcNAc
# How it was run: as §1
# [6] = biological target: Fuc(a1-2)Gal(b1-3)GlcNAc(b1-2)Man(a1-3)[Fuc(a1-2)Gal(b1-3)GlcNAc(b1-2)Man(a1-6)]Man(b1-4)GlcNAc(b1-4)GlcNAc
# How it was run: as §1
# [7] = biological target: Fuc(a1-2)Gal(b1-3)GlcNAc(b1-2)Man(a1-3)[Fuc(a1-2)Gal(b1-3)GlcNAc(b1-2)Man(a1-6)]Man(b1-4)GlcNAc(b1-4)[Fuc(a1-6)]GlcNAc
# How it was run: as §1
# [8] = biological target: Fuc(a1-2)Gal(b1-3)GlcNAc(b1-3)Gal(b1-4)Glc
# How it was run: as §1
# [9] = biological target: Fuc(a1-2)Gal(b1-3)GlcNAc(b1-3)GalNAc
# How it was run: as §1
# [10] = biological target: Fuc(a1-2)Gal(b1-3)GlcNAc(b1-3)[Fuc(a1-2)Gal(b1-3)GlcNAc(b1-6)]GalNAc
# How it was run: as §1
# [11] = biological target: Fuc(a1-2)Gal(b1-3)GlcNAc(b1-3)[Gal(b1-4)GlcNAc(b1-6)]Gal(b1-4)Glc
# How it was run: as §1
# [12] = biological target: Fuc(a1-2)Gal(b1-3)GlcNAc(b1-3)[Neu5Ac(a2-6)Gal(b1-4)GlcNAc(b1-6)]Gal(b1-4)Glc
# How it was run: as §1
# [13] = biological target: Fuc(a1-2)Gal(b1-3)GlcNAc6S
# How it was run: as §1
# [14] = biological target: Fuc(a1-2)Gal(b1-3)[Fuc(a1-4)]GlcNAc
# How it was run: as §1
# [15] = biological target: Fuc(a1-2)Gal(b1-3)[Fuc(a1-4)]GlcNAc(b1-2)Man(a1-3)[Fuc(a1-2)Gal(b1-3)[Fuc(a1-4)]GlcNAc(b1-2)Man(a1-3)]Man(b1-4)GlcNAc(b1-4)GlcNAc
# How it was run: as §1
# [16] = biological target: Fuc(a1-2)Gal(b1-3)[Fuc(a1-4)]GlcNAc(b1-2)Man(a1-3)[Fuc(a1-2)Gal(b1-3)[Fuc(a1-4)]GlcNAc(b1-2)Man(a1-6)]Man(b1-4)GlcNAc(b1-4)[Fuc(a1-6)]GlcNAc(b1-4)[Fuc(a1-6)]GlcNAc
# How it was run: as §1
# [17] = biological target: Fuc(a1-2)Gal(b1-3)[Fuc(a1-4)]GlcNAc(b1-3)[Fuc(a1-3)[Gal(b1-4)]GlcNAc(b1-6)]Gal(b1-4)Glc
# How it was run: as §1
# [18] = biological target: Fuc(a1-2)Gal(b1-3)[Fuc(a1-4)]GlcNAc(b1-3)[Gal(b1-4)GlcNAc(b1-6)]Gal(b1-4)Glc
# How it was run: as §1
# [19] = biological target: Fuc(a1-2)Gal(b1-4)Fuc(a1-3)]GlcNAc(b1-2)Man(a1-3)[Fuc(a1-2)Gal(b1-4)[Fuc(a1-3)]GlcNAc(b1-2)Man(a1-6)]Man(b1-4)GlcNAc(b1-4)GlcNAc
# How it was run: as §1
# Fuc(a1-2)Gal(b1-4)Glc = biological target: Fuc(a1-2)Gal(b1-4)Glc
# How it was run: as §1
# Fuc(a1-2)Gal(b1-4)Glc6S = biological target: Fuc(a1-2)Gal(b1-4)Glc6S
# How it was run: as §1
# Fuc(a1-2)Gal(b1-4)GlcNAc = biological target: Fuc(a1-2)Gal(b1-4)GlcNAc
# How it was run: as §1
# [20] = biological target: Fuc(a1-2)Gal(b1-4)GlcNAc(b1-2)Man
# How it was run: as §1
# [21] = biological target: Fuc(a1-2)Gal(b1-4)GlcNAc(b1-2)Man(a1-3)[Fuc(a1-2)Gal(b1-4)GlcNAc(b1-2)Man(a1-6)]Man(b1-4)GlcNAc(b1-4)GlcNAc
# How it was run: as §1
# [22] = biological target: Fuc(a1-2)Gal(b1-4)GlcNAc(b1-2)Man(a1-3)[Fuc(a1-2)Gal(b1-4)GlcNAc(b1-2)Man(a1-6)]Man(b1-4)GlcNAc(b1-4)[Fuc(a1-6)]GlcNAc
# How it was run: as §1
# [23] = biological target: Fuc(a1-2)Gal(b1-4)GlcNAc(b1-2)[Fuc(a1-2)Gal(b1-4)GlcNAc(b1-4)]Man(a1-3)[Fuc(a1-2)Gal(b1-4)GlcNAc(b1-2)Man(a1-6)]Man(b1-4)GlcNAc(b1-4)GlcNAc
# How it was run: as §1
# [24] = biological target: Fuc(a1-2)Gal(b1-4)GlcNAc(b1-3)Gal(b1-4)GlcNAc
# How it was run: as §1
binder,measurement,setting,value
B1,glycan array binding signal (z-score),Fuc(a1-2)Gal,13.2
same,glycan array binding signal (z-score),Fuc(a1-2)Gal(b1-3)GalNAc,12.6
same,glycan array binding signal (z-score),[1],-0.07
same,glycan array binding signal (z-score),[2],-0.077
same,glycan array binding signal (z-score),[3],-0.022
same,glycan array binding signal (z-score),[4],-0.083
same,glycan array binding signal (z-score),[5],-0.082
same,glycan array binding signal (z-score),Fuc(a1-2)Gal(b1-3)GlcNAc,-0.082
same,glycan array binding signal (z-score),[6],-0.074
same,glycan array binding signal (z-score),[7],-0.077
same,glycan array binding signal (z-score),[8],-0.077
same,glycan array binding signal (z-score),[9],-0.081
same,glycan array binding signal (z-score),[10],-0.076
same,glycan array binding signal (z-score),[11],-0.083
same,glycan array binding signal (z-score),[12],-0.078
same,glycan array binding signal (z-score),[13],-0.058
same,glycan array binding signal (z-score),[14],-0.079
same,glycan array binding signal (z-score),[15],-0.074
same,glycan array binding signal (z-score),[16],-0.063
same,glycan array binding signal (z-score),[17],-0.087
same,glycan array binding signal (z-score),[18],-0.074
same,glycan array binding signal (z-score),[19],-0.074
same,glycan array binding signal (z-score),Fuc(a1-2)Gal(b1-4)Glc,-0.086
same,glycan array binding signal (z-score),Fuc(a1-2)Gal(b1-4)Glc6S,-0.072
same,glycan array binding signal (z-score),Fuc(a1-2)Gal(b1-4)GlcNAc,-0.076
same,glycan array binding signal (z-score),[20],-0.083
same,glycan array binding signal (z-score),[21],-0.084
same,glycan array binding signal (z-score),[22],-0.081
same,glycan array binding signal (z-score),[23],-0.082
same,glycan array binding signal (z-score),[24],-0.085
